Assay results published in patent US11618753B2 (priority 2018, dated 2023).

test system: MLKL phosphorylation, HT29-L23 human colorectal adenocarcinoma cells; experiment: cells; conditions: read-out: pMLKL HCS Cell Assay (IC50, uM)

| SMILES | IC50 |
| --- | --- |
| C[C@@](O)(C(=O)N1C[C@H](F)[C@H](NC(=O)c2cc(-c3cc(C(F)(F)F)c4c(N)ncnn34)cc(F)c2F)C1)C(F)(F)F [Example 1332, 5-[4-amino-5-(trifluoromethyl)pyrrolo-[2,1-f][1,2,4]triazin-7-yl]-2,3-difluoro-N-[(3R,4S)-4-fluoro-1-[(2R)-3,3,3-trifluoro-2-hydroxy-2-methyl-propanoyl]pyrrolidin-3-yl]benzamide] | 0.00081 µM |
| Nc1ncnn2c(-c3cc(F)c(F)c(C(=O)N[C@@H]4CN(C(=O)C5CCC(F)(F)C5)C[C@@H]4F)c3)cc(C(F)(F)F)c12 (stereo partly drawn) [Example 1333, 5-[4-amino-5-(trifluoromethyl)pyrrolo-[2,1-f][1,2,4]triazin-7-yl]-N-[(3R,4S)-1-(3,3-difluorocyclopentanecarbonyl)-4-fluoropyrrolidin-3-yl]-2,3-difluoro-benzamide] | 0.015 µM |
| CC(O)(CC(=O)N1C[C@H](F)[C@H](NC(=O)c2cc(-c3cc(C(F)(F)F)c4c(N)ncnn34)cc(F)c2F)C1)C(F)(F)F (stereo partly drawn) [Example 1334, 5-[4-amino-5-(trifluoromethyl)pyrrolo-[2,1-f][1,2,4]triazin-7-yl]-2,3-difluoro-N-[(3R,4S)-4-fluoro-1-(4,4,4-trifluoro-3-hydroxy-3-methylbutanoyl)pyrrolidin-3-yl]benzamide] | 0.0087 µM |
| CC(C(=O)N1C[C@H](F)[C@H](NC(=O)c2cc(-c3cc(C(F)(F)F)c4c(N)ncnn34)cc(F)c2F)C1)C(F)(F)F (stereo partly drawn) [Example 1335, 5-[4-amino-5-(trifluoromethyl)pyrrolo-[2,1-f][1,2,4]triazin-7-yl]-2,3-difluoro-N-[(3R,4S)-4-fluoro-1-(3,3,3-trifluoro-2-methylpropanoyl)pyrrolidin-3-yl]-benzamide] | 0.0044 µM |
| Nc1ncnn2c(-c3cc(F)c(F)c(C(=O)N[C@@H]4CN(C(=O)C5CC(F)(F)C5)C[C@@H]4F)c3)cc(C(F)(F)F)c12 [Example 1336, 5-[4-amino-5-(trifluoromethyl)pyrrolo-[2,1-f][1,2,4]triazin-7-yl]-N-[(3R,4S)-1-(3,3-difluorocyclobutanecarbonyl)-4-fluoropyrrolidin-3-yl]-2,3-difluoro-benzamide] | 0.015 µM |
| CCC(O)(C(=O)N1C[C@H](F)[C@H](NC(=O)c2cc(-c3cc(C(F)(F)F)c4c(N)ncnn34)cc(F)c2F)C1)C(F)(F)F (stereo partly drawn) [Example 1337, 5-[4-amino-5-(trifluoromethyl)pyrrolo-[2,1-f][1,2,4]triazin-7-yl]-2,3-difluoro-N-[(3R,4S)-4-fluoro-1-[2-hydroxy-2-(trifluoromethyl)butanoyl]pyrrolidin-3-yl]benzamide] | 0.0028 µM |
| COc1ncc(-c2cc(C(F)(F)F)c3c(NC(C)=O)ncnn23)cc1C(=O)N[C@@H]1CN(C(=O)C2CC(F)(F)C2)C[C@@H]1F [Example 1339, N-[(3R,4S)-1-(3,3-difluorocyclobutanecarbonyl)-4-fluoropyrrolidin-3-yl]-5-[4-acetamido-5-(trifluoromethyl)pyrrolo[2,1-f][1,2,4]triazin-7-yl]-2-methoxypyridine-3-carboxamide] | 0.039 µM |
| COc1ncc(-c2cc(C(F)(F)F)c3c(NC(C)=O)ncnn23)cc1C(=O)N[C@@H]1CN(C(=O)CC(O)(C(F)(F)F)C(F)(F)F)C[C@@H]1F [Example 1340, 5-[4-acetamido-5-(trifluoromethyl)pyrrolo[2,1-f][1,2,4]triazin-7-yl]-N-[(3R,4S)-4-fluoro-1-[4,4,4-trifluoro-3-hydroxy-3-(trifluoromethyl)butanoyl]pyrrolidin-3-yl]-2-methoxypyridine-3-carboxamide] | 0.0033 µM |
| COc1ncc(-c2cc(C(F)(F)F)c3c(NC(C)=O)ncnn23)cc1C(=O)N[C@@H]1CN(C(=O)[C@@](C)(O)C(F)(F)F)C[C@@H]1F [Example 1341, 5-[4-acetamido-5-(trifluoromethyl)pyrrolo[2,1-f][1,2,4]triazin-7-yl]-N-[(3R,4S)-4-fluoro-1-[(2R)-3,3,3-trifluoro-2-hydroxy-2-methylpropanoyl]pyrrolidin-3-yl]-2-methoxypyridine-3-carboxamide] | 0.0041 µM |
| [2H]C([2H])([2H])Oc1ncc(-c2cc(C(F)(F)F)c3c(NC(C)=O)ncnn23)cc1C(=O)N[C@@H]1CN(C(=O)[C@@H]2CCC(F)(F)C2)C[C@@H]1F [Example 1342, N-[(3R,4S)-1-[(1R)-3,3-difluorocyclopentanecarbonyl]-4-fluoropyrrolidin-3-yl]-5-[4-acetamido-5-(trifluoromethyl)pyrrolo[2,1-f][1,2,4]triazin-7-yl]-2-methoxypyridine-3-carboxamide] | 0.03 µM |
| COc1ncc(-c2cc(C(F)(F)F)c3c(NC(=O)C(C)(C)F)ncnn23)cc1C(=O)N[C@@H]1CN(C(=O)[C@@](C)(O)C(F)(F)F)C[C@@H]1F [Example 1343, N-[(3R,4S)-4-fluoro-1-[(2R)-3,3,3-trifluoro-2-hydroxy-2-methylpropanoyl]pyrrolidin-3-yl]-5-[4-(2-fluoro-2-methylpropanamido)-5-(trifluoromethyl)pyrrolo[2,1-f][1,2,4]triazin-7-yl]-2-methoxypyridine-3-carboxamide] | 0.00087 µM |
| COc1ncc(-c2cc(C(F)(F)F)c3c(N)ncnn23)cc1C(=O)Nc1ncn(Cc2ccccc2)n1 [Example 1344, 5-[4-amino-5-(trifluoromethyl)pyrrolo[2,1-f][1,2,4]triazin-7-yl]-N-(1-benzyl-1H-1,2,4-triazol-3-yl)-2-methoxypyridine-3-carboxamide] | 0.0083 µM |
| COc1ncc(-c2cc(C(F)(F)F)c3c(N)ncnn23)cc1C(=O)NC1CN(C(=O)C2CC(F)(F)C2)CC1(F)F (stereo not shown) [Example 1345, 5-[4-amino-5-(trifluoromethyl)pyrrolo[2,1-f][1,2,4]triazin-7-yl]-N-[1-(3,3-difluorocyclobutanecarbonyl)-4,4-difluoropyrrolidin-3-yl]-2-methoxypyridine-3-carboxamide] | 0.031 µM |
| COc1ncc(-c2cc(C(F)(F)F)c3c(N)ncnn23)cc1C(=O)N(C)[C@@H]1CN(C(=O)[C@@](C)(O)C(F)(F)F)C[C@@H]1F [Example 1346, 5-(4-amino-5-(trifluoromethyl)pyrrolo[2,1-f][1,2,4]triazin-7-yl)-N-((3R,4S)-4-fluoro-1-((R)-3,3,3-trifluoro-2-hydroxy-2-methylpropanoyl)pyrrolidin-3-yl)-2-methoxy-N-methylnicotinamide] | 0.035 µM |
| COc1ncc(-c2cc(C(F)(F)F)c3c(N)ncnn23)cc1C(=O)N(C)[C@@H]1CN(C(=O)[C@@](C)(OC)C(F)(F)F)C[C@@H]1F [Example 1347, 5-(4-amino-5-(trifluoromethyl)pyrrolo[2,1-f][1,2,4]triazin-7-yl)-N-((3R,4S)-4-fluoro-1-((R)-3,3,3-trifluoro-2-methoxy-2-methylpropanoyl)pyrrolidin-3-yl)-2-methoxy-N-methylnicotinamide] | 0.213 µM |
| COc1ncc(-c2cc(C(=O)N3CC(F)(F)C3)c3c(N)ncnn23)cc1C(=O)N[C@@H]1CN(C(=O)[C@@](C)(O)C(F)(F)F)C[C@@H]1F [Example 1349, 5-[4-amino-5-(3,3-difluoroazetidine-1-carbonyl)pyrrolo[2,1-f][1,2,4]triazin-7-yl]-N-[(3R,4S)-4-fluoro-1-[(2R)-3,3,3-trifluoro-2-hydroxy-2-methylpropanoyl]pyrrolidin-3-yl]-2-methoxypyridine-3-carboxamide] | 0.041 µM |
